The results in this text go back to the RNAGym collection of RNA variant scans (doi:10.7554/elife.90254).

The source gives no read counts; variants with many changes may rest on few reads.

B1: OR4K15 (parent)
chain: GUUAACGGUCAUAGGCCAUGGAAACUAGGAGCACCAUUUCGCUGCCAGUGAAGAAAUGAACAAAGAAAAUCUGGGCCAGGCAGGCAUCAAAAGAAAUAGUCUUGCGCUCAACCAGAAAGUCUGUAAUCAUUUUAAGGGUA

The variants in this data set derive from B1. Put plainly: self-cleavage, relative activity (ratio to wild type); higher = more cleavage; in vitro, sequencing; the parent is a self-cleaving ribozyme.
Take GUUAACGGACAUAGGCCAUGGAAACUAGGAGCACCAUUUCGCUGCCAGUGAAGAAACGGACAAAGAAAAUCUGGGCCAGGCAGGCAUCGAAAGAAAUAGUCUUGCGCUCAACCAGAGAGUCUGUAAUCAUCUUAAGGGUA [U9A U57C A59G A89G A117G U131C]: the self-cleavage was determined as 0.92. The value for GUUAACGGCCAUAGGCCGUGGAAACUAGGAGCACCAUUUCGCUGCCGGUGAAGAAAUGAACAAAGAAAAUUUGGGCCAGGCAGGCAUCAAGAGAAAUAGUCUUGCGCUCAACCAGAAGGUCUGUAAUCAUUUUAAGGGUA [U9C A18G A47G C71U A91G A118G] was 0.19; that for GUUAACGGCCGUAGGCCAUGGAAACUAGGAGCACCAUCUCGCUGCCAGUGAGGAAAUGGACAAAGAAAAUCUGGGCCAGGCAGGCAUCAAAAGAAAUAGUCUUGCGCUCAACCAGAAAGUCUGUAAUCAUUUUAAGGGUA [U9C A11G U38C A52G A59G] was 0.48; that for GUUAACGGACAUAGGCCAUGGAAACUAGGAGCACCAUUUCGCUGCCAGUGAAGAAACGAACAAAGGAAAUCUGGGCCAGGCAGGCAUCAAGAGAAAUAGUCUUGCGCUCAACCAGAAAGUCUGUAAUCAUUUUAAGGGAA [U9A U57C A66G A91G U139A] was 0.48. The value for GUUAACGGACAUAGGCCAUGGAAACUAGGAGCACCAUUUCGCUGCCAGCGAUGAAAUGAACAAAGAAAACCUGGGCCAGGCAGGCAUCAAAGGAAAUAGUCUUGCGCUCAACCAGAGAGUCUGUAAUCAUUUUAAGGGUA [U9A U49C A52U U70C A92G A117G] was 1.16; that for GUUAACGGACAUAGGCCAUGGAAACAAGGAGCACCACUUCGCUGCCAGUGAAGAAAUGAACAAAGAAAAUCUGGGCCAGGCAGGCAUCAAAAGAAACAGUCUUGCGCUCAACCAGAAGGUCUGUAAUCAUUUCAAGGGUA [U9A U26A U37C U97C A118G U133C] was 1.62. The value for GUUAACGGACAUAGGCCAUGGAAACUAGGAGCACCAUUUCGCUGCCAGUGAAGAAAUGAACAAAGAAAAUCUGGGCCAGGCAGGCAUCAAAAGAAAUAGUCUUGCGCUCAACCAGAAAGUCCGUGAUCAUUUUAAGGGUA [U9A U122C A125G] was 0.57; that for GUUAACGGACAUAGGCCAUGGAAACUAGGAGCACCAUUCCGCUGCCAGUGAAGAAAUGAACAAAGAGAAUCUGGGCCAGGCAGGCAUCUAAAGAAAUAGUCUUGCGCUCAACCAGAAAGUCUGUAAUCAUUUUAAGGGUA [U9A U39C A67G A89U] was 1.38. On to GUUAACGGCCAUUGGCCAUGGAAACUAGGAGCACCAUUUCGCUGCCAGUGAAGAAAUGAACAAAGAAAAUCUGGGCCAGGCAGGCUUCAAAAGAAAUAGUCAUGCGCUCAACCAGAAAGCCUGUAAUCAUUUUAAGGGUA [U9C A13U A86U U102A U120C], for which the self-cleavage was found to be 0.25.

Consider GUUAACGGACAUAGGCCAUGGAAACUAGGAGCACCAUUUCGCUGCCAGUGAAGAAAUGAACAAAGAAAAUCCGGGCCAGGCAGGCAUCGAAGGAAAUAGUCAUGCGCACAACCAGAAAGUCUGUAAUCAUUUUAAGGGUA [U9A U72C A89G A92G U102A U108A], for which the self-cleavage turned out to be 0.02.

For GUUAACGGACAUAGGCCAUGGAAACUAGGAGCACCAUUCCGCUGCCAGUGAAGAAAUGAACAAAGAAAAUCUGGGCCAGGCAGGCAUCAAAAGAAAUAGUCUUGCGCUCAACCAGAAAGUCUGUAACCGUUUUAAGGGUA [U9A U39C U127C A129G], the self-cleavage worked out at 0.44. Under GUUAACGGCCGUAGGCCAUGGAAACUAGGAGCACCAUUUCGCUGCCAGUGAAGAAAUGAACAAAGAAAAUCAGGGCCAGGCAGGCAUCAAAAGAAAUAGUCUUGCGCUCAACCAGAAAGUCUGUAAUCACUUUAAGGGUA [U9C A11G U72A U130C] stands 0.16; under GUUAACGGCCGUAGGCCAUGGAAACUAGGAGCACCAUUUCGCUGCCAGUGAAGAAAUGAACAAAUAAAAUCUGGGCCAGGCAGGCAUCAAAAGAAAUAGUCUUGCGCUCGACCAGAAAGUCUGUAAUCGUUUUAAGGGUA [U9C A11G G65U A110G A129G], 0.08; under GUUAACGGCCAUUGGCCAUGGAAACUAGGAGCACCAUUCCGCUGCCAGUGAAGAAACGAACAAAGAAAAUCUGGGCCAGGCAGGCAUCAAAGGAAAUAGUCUUGCGCUCAACCAGAAAGUCUGUAAUCAUUUUUAGGGUA [U9C A13U U39C U57C A92G A134U], 0.94. The value for GUUAACGGACAUAGGCCAUGGAAACUAGGAGCACCAUUUCGCUGCCAGCGAAGAAAUGAACAAAGGAAAUCUGGGCCAGGCAGGCAUCAAAAGAGAUAGUCUUGCGCUCAACCAGAAAGUCUGUAAUCAUUUUAAGGGUA [U9A U49C A66G A95G] was 1.8. The value for GUUAACGGACAUAGGCCAUGGAAACCAGGAGCACCAUUUCGCUGCCAGUGAAGAAGUGAACAGAGAAAAUCUGGGCCAGGCAGGCAUCAAAAGAAAUAGUCCUGCGCUCAACCAGAAAGUCUGUAAUCAUUUUAAGGGUA [U9A U26C A56G A63G U102C] was 1.95; that for GUUAACGGCCUUAGGCCAUGGAAACUAGGAGCACCAUUUCGCUGCCAGUGAAGAAAUGAACAAAGAAAAUCUGGGCCAGGCAGGCAUCAAAAGAAAUAGUCUUGCGCUCAGCCAGAAAGUCUGUAAUCAUUUUAAGGGUA [U9C A11U A111G] was 0.04. Take GUUAACGGCCAUAGGCCGUGGAAACUAGGAGCACCAUUUCGCUGCCAGUGAUGAAAUGAACAAAGAAAAUCUGGGCCAGGCAGGCAUCAAAAGAAAUAGUCUUGCGCUCAACCAGAAAGUCUGUAAUCAUAUUAAGGGUA [U9C A18G A52U U131A]: the self-cleavage was 1.61. The value for GUUAACGGCCGUAGGCCAUGGAAACUAGGAGCACCUUUUCGCUGCCAGUGAAGAAAUGAACAAAGAAAAUCUGGGCCAGGCAGGCAUCAAAAGAAAUAGUCUUGCGCUCUACCAGAAAGUCUGUAAUCAUUUUAAGGGUA [U9C A11G A36U A110U] was 0.71; that for GUUAACGGCCUUAGGCCAUGGAAUCUAGGAGCACCAUUUCGCUGCCAGUGAGGAAAUGAACAAAGAAAAUCUGGGCCAGGCAGGCAUCAAAAGAAAUAGUCUUGCGCUCAACCAGAAAGUCUGUAAUCAUUUUAAGGGUA [U9C A11U A24U A52G] was 0.98; that for GUUAACGGACAUAGGCCAUGGAAACUAGGAGCACCAUUUCGCUGCCAGUGAAGAAAUGAACAAAGAAAAACUGGGCCAGGCAGGCAUCAAAAGAAGUAGUCUUGCGCUCAACCAGAAAGUCUGUAAUCAUUUUAAGGGUA [U9A U70A A96G] was 1.01. Under GUUAACGGCCAUAGGCCGUGGAAACUAGGAGCACCAUUUCGCUGCCAGUGAAGAAAUGAACAAAGAAAAUCUGGGCCGGGCAGGCAUCUAAAGAGAUAGUCUUGCGCUCAACCAGAAAGUCUGUAAUCAUUUUAAGGGUA [U9C A18G A78G A89U A95G] stands 0.49; under GUUAACGGACAUAGGCCAUGGAAACUAGGAGCACCACUUCGCUGCCAGUGGAGAACUGAACAAAGAAAAUCUGGGCCAGGCAGGCAUCAAAAGAAAUAGUCUUGCGCUCAACCAGAAAGUCUGUAAUCAUUUUAAGGGUA [U9A U37C A51G A56C], 1.69. In the case of GUUAACGGACAUAGGCCAUGGAAACUAGGAGCACCAUUCCGCUGCCAGUGAAGAAAUGAACAAAGAAAAUCUGGGCCAGGCAGGCACCAAAAGAAAUAGUCUUGCGCUCAACCAGAAAGUCUGUAAUCAUUUUAAGGGUA [U9A U39C U87C], the self-cleavage was 1.64. Consider GUUAACGGACAUAGGCCAUGGAAACUAGGAGCACCAUUUCGCUGCCAGUGAAGAAAUGAACAAAGAAAAUCUGGGCCAGGCAGGCAUCAAAAGAAAUAGUCUCGCGCUCAACCAGAAAGUCUGUAAUCAUCUUAAGGGUA [U9A U103C U131C], for which the self-cleavage is 0.31. Under GUUAACGGCCAUGGGCCAUGGAAACUAGGAGCACCAUUUCGCUGCCAGUGAUGAAAUGAACAAAGAAAAUCUGGGCCAGGCAGGCAUCAAAAGAAAUAGUCUUGCGCUCAACCAGAAAGUCUGUAAUCACUUUAAGGGUA [U9C A13G A52U U130C] stands 0.44; under GUUAACGGACAUAGGCCAUGGAAACUAGGAGCACCAUUUCGCAGCCAGUGAAGAAAUGAACAAAGAAAAUCUGGGCCAGGCAGGCAUCAAAAGAAAUAGUCUUGCGCUCAACCAGAAAGUCUGUAAACAUUUUAAGGGUA [U9A U43A U127A], 1.43.

As for GUUAACGGACAUAGGCCAUGGAAACUAGGAGCACCACUUCGCUGCCAGUGAAGAAAUGAACAAAGAAAAUCUGGGCCAGGCAGGCGUCAAAAGAAAUAGUCUUGCGCUCAACCAGAAAGUCUGUAACCAUUUUAAGGGUA [U9A U37C A86G U127C], the self-cleavage was determined as 1.05. The value for GUUAACGGCCGUAGGCCAUGGAAACUAGGAGCACCAUUUCGCUGCCAGUGAAGAAAUGAACAAAGAAAAUCUGGGCCAGGCAGGCAUCAAAAGAAAUAGUCCUGCGCUCAACCAGAAAGUCUGUAGUCAUUUUAAGGGUA [U9C A11G U102C A126G] was 0.88; that for GUUAACGGACAUAGGCCAUGGAAACUAGGAGCACCAUUUCGCUGCCAGUGAAGAAAUGAACAAAGAAAAUCUGGGCCAGGCAGGCACCAAAAGAAAUAGUCUUGCGUUCAACCAGAAAGUCUGUAAUCAUCUUAAGGGUA [U9A U87C C107U U131C] was 0.01; that for GUUAACGGCCUUAGGCCAUGGAAACUAGGAGCACCAUUUCGCUGCCAGUGAAGAAAUGAACAAAGAAAAUCUGGGCCAGGCAGUCAUCAAAAGAAAUAGCCUUGCGCUCAACCAGAAAGUCUGUAAUCAUUUUAAGGGUA [U9C A11U G84U U100C] was 0.38. Under GUUAACGGACAUAGGCCAUGGAAACUAGGAGCACCAUCUCGCUGCCAGUGAAGAAAUGAACAAAGAAAAUCUGGGCCAGGCGGGCAUCAAAAGAGAUAGUCUUGCGCUCAACCAGAAAGUCUGUAGUCAUUUUAAGGGUA [U9A U38C A82G A95G A126G] stands 0.34. Under GUUAACGGACAUAGGCCAUGGAAACUAGGAGCACCAUCUCGCCGCCAGCGAAGAAAUGAACGAAGAAAAUCUGGGCCAGGCAGGCAUCAAAAGAAAUAGUCUUGCGCUCAACCAGAAAGUCUGUAACCAUUUUAAGUGUA [U9A U38C U43C U49C A62G U127C G137U] stands 0.43; under GUUAACGGACAUAGGCCAUGGAAACUAGGAGCACCAUUUCGCAGUCAGUGAAGAAAUGAACAAAGAAAAUCUGGGCCAGACAGGCAUCAAAAGAAAUAGUCUUGCGCUCAACCAGAAAGUCUGUAAUCAUUUUAAGGGUA [U9A U43A C45U G80A], 0.3; under GUUAACGGACAUAGGCCAUGGAAACCAGGAGCACCAUUUCGCUGCCAGUGUUGAAAUGAACAAAGAAAAUCUGGGCCUGGCAGGCAUCAAAAGAAAUAGUCUUGCGCUCAACCAGAAAGUCUGUAAUCAUUUUAAGGGUA [U9A U26C A51U A52U A78U], 0.13. As to GUUAACGGACAUAGGCCACGGAAACUAGGAGCACCAUUUCGCUGCCAGUGAAGAAAUGAUCAAGGAAAGUCUGGGCCAGGCAGGCAUCAAAAGAAAUAGUCUUGCGCUCAACCAGAAAGUCUGUAAUCAUUUUAAGGGUA [U9A U19C A60U A64G A69G], the self-cleavage turned out to be 0.9. Under GUUAACGGCCCUAGGCCAUGGAUACUAGGAGCACCAUCUCGCUGCCAGUGAAGAAAUGAACAAAGAAAAUCUGGGCCAGGCAGGCAUCAAAAGAAAUAGUCUUGCGCUCAACCAGAAAGUCUGUAAUCAUUUUAAGGGUA [U9C A11C A23U U38C] stands 1.05; under GUUAACGGCCUUAGGCCAUGGAAACUAGGAGCACCAUUUCGCUGCCAGUGAAGAAAUGAACAAAGAAAAUCUGGGCCAUGCAGGCAUCAAAAGAAAUAGUCUUGCGCUCAACCAGAAAGUCUGUAAUCAUUUUAAGGGUA [U9C A11U G79U], 0.19. The value for GUUAACGGACAUAGGCCAUGGAAACUAGGAGCACCAUUUCGCUGCCAGUGAAGAAAUGAACAAAGAAAAUCUGGGCCAGGCAGGCAUCAAAAGAAAGAGUCUUGCGCUCAACCAGAAAGUCUGUAACCAUUUUAAGGGUA [U9A U97G U127C] was 0.58; that for GUUAACGGCCGUAGGCCAUGGAAACUAGGAGCACCAUUUCGCUGCCAGUGAAGAAAUGAACAAAGAAAAUCUGGGCCAGGCAGGCACCAAAAGAAAUAGUCUUGCGCUCAACCAGAAAGUCUGUAAUCAUUUUAAGGGUA [U9C A11G U87C] was 1.13. As to GUUAACGGACAUAGGCCAUGGAAACUAGGAGCACCAUUACGCUGCCAGUGAAGAAACGAACAAAGAAAAUCUGGGCCAGGCAGGCAUCAAAAGAAAUAGUCUUGCGCUCAACCAGAAAGUCUGUAAUCAUUUUAAGGGUA [U9A U39A U57C], the self-cleavage turned out to be 1.17.
